# Results are given in words; binding and its absence hold for the method and conditions named. Some entries that bind do so weakly or less than the wild type. Where a sequence is shown, tags or fusion partners need not be part of it.
# T1: YukC full length, C-terminally Strep-tagged (pRSF/yukCFL.strep) (Bacillus subtilis 168) (UniProt P71070)
# T1 sequence: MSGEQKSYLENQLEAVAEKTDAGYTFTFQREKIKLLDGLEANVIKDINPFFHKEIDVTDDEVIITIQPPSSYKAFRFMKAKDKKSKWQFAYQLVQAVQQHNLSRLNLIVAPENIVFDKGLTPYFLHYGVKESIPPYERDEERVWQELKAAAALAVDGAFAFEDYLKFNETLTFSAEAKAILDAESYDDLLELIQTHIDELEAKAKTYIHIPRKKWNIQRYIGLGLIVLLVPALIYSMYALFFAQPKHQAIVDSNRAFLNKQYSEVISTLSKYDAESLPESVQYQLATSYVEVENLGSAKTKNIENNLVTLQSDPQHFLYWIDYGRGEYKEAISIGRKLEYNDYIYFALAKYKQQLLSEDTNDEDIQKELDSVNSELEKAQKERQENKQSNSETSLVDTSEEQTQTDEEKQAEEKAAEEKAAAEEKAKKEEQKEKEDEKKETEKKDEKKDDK
# T2: YukCΔ217 (pseudokinase domain of YukC), Strep-tagged (pRSF/yukCΔ217.strep) (Bacillus subtilis 168) (UniProt P71070)
# T2 sequence: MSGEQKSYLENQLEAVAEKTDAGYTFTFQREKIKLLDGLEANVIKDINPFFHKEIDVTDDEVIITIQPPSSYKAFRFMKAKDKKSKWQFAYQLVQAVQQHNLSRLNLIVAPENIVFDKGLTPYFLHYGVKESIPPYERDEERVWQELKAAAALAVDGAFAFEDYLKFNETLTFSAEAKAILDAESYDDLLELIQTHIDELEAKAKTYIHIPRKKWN
# T3: YueB, Strep-tagged (pRSF/yueB.strep) (Bacillus subtilis 168) (UniProt O32101)
# T3 sequence: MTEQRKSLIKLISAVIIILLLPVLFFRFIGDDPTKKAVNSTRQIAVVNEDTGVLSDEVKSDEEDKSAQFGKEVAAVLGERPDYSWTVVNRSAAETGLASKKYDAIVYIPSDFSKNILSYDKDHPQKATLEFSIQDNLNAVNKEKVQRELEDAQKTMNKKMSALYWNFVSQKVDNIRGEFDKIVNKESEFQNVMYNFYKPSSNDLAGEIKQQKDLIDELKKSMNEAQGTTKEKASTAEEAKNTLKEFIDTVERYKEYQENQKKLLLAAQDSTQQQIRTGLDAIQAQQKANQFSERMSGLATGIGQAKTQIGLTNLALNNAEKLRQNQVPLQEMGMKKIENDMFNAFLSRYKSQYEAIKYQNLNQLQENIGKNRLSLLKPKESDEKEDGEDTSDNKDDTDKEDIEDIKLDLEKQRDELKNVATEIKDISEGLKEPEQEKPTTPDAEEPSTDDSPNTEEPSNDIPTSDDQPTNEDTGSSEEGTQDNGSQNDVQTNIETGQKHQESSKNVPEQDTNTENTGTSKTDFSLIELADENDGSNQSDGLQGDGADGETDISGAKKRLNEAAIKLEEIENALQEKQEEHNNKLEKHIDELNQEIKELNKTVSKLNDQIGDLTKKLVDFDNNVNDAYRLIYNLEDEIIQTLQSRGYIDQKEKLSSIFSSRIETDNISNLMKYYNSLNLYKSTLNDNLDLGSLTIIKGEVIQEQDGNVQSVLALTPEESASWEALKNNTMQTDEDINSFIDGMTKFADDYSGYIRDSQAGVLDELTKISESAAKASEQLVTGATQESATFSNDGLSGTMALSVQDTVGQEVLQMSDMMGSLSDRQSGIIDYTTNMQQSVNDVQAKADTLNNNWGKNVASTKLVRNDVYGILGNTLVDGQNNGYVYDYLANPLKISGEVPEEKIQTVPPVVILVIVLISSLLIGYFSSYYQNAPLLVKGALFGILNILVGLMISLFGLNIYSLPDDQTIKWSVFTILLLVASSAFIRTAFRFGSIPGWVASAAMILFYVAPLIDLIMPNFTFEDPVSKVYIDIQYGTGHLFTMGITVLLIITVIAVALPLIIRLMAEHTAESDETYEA
# T4: YukC413 (YukC lacking the last 38 residues), Strep-tagged (pRSF/yukC413.strep) (Bacillus subtilis 168) (UniProt P71070)
# T4 sequence: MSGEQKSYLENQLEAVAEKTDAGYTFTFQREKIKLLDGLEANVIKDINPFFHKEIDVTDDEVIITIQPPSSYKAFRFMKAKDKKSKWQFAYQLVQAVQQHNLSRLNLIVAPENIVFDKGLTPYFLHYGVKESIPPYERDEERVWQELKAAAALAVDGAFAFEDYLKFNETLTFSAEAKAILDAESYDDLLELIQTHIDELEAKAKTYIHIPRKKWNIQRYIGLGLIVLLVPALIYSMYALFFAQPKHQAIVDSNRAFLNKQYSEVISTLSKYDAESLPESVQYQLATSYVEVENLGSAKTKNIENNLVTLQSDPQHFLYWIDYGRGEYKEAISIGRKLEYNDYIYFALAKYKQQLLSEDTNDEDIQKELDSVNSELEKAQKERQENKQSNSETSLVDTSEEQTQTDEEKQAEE
# T5: YueC, bacterial two-hybrid fusion (Bacillus subtilis 168) (UniProt O32100)
# T5 sequence: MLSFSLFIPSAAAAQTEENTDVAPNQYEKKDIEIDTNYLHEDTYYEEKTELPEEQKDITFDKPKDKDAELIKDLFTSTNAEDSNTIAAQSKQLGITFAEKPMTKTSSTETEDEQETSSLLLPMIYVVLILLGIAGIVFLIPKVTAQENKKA
# T6: YukB, bacterial two-hybrid fusion (Bacillus subtilis 168) (UniProt C0SPA7)
# T6 sequence: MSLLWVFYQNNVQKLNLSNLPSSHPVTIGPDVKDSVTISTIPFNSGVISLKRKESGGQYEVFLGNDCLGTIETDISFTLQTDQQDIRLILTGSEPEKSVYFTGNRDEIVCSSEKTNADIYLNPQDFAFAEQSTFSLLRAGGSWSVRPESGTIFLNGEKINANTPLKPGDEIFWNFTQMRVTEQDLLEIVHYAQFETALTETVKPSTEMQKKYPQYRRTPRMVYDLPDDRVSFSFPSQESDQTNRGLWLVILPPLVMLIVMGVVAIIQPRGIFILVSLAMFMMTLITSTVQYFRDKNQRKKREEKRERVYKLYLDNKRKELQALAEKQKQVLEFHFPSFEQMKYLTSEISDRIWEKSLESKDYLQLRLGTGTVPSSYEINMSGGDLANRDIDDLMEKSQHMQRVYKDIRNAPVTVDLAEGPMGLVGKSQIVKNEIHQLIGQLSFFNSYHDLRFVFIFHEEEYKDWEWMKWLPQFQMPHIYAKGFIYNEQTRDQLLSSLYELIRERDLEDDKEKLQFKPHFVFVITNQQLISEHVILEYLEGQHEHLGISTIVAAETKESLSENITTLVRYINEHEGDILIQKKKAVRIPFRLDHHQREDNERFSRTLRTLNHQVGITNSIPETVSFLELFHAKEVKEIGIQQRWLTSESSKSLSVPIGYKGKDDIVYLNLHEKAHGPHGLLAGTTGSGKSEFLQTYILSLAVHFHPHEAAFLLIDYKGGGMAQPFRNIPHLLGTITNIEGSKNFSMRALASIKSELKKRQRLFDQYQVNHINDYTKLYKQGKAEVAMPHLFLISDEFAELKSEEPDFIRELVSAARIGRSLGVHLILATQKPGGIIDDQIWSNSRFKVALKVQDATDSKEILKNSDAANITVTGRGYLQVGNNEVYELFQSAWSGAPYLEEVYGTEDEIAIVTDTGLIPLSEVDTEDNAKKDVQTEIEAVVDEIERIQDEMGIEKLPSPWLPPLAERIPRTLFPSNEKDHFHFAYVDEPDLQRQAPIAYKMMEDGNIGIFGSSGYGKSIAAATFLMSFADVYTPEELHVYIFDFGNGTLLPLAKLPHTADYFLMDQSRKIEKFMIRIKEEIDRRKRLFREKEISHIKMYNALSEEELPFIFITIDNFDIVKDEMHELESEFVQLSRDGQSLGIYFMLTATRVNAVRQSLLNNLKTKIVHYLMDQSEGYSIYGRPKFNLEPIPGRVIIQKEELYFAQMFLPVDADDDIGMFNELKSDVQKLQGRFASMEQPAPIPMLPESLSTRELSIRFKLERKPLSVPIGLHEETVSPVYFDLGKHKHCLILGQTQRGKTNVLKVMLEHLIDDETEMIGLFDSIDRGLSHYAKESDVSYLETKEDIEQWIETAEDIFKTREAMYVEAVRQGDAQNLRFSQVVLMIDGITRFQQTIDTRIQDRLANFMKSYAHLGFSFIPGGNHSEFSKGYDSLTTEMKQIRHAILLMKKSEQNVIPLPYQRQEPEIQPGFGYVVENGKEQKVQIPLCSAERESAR
# T7: YukD, bacterial two-hybrid fusion (Bacillus subtilis 168) (UniProt P71071)
# T7 sequence: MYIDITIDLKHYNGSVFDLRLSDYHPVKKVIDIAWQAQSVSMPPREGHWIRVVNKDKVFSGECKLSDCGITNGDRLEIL
# Experiments:
# [1] = target: T1, YukC full length, C-terminally Strep-tagged (pRSF/yukCFL.strep) (Bacillus subtilis 168); test: copurification by two successive affinity columns; coexpression in E. coli BL21(DE3); StrepTrap, then HisTrap; 25 mM HEPES pH 8, 175 mM NaCl, 0.03% Triton X-100, 0.5 mM TCEP; SDS-PAGE (TGX stain-free) and immunoblots (anti-His6, anti-Strep); for full-length YukC from the detergent-solubilized membrane fraction
# [2] = target: T2, YukCΔ217 (pseudokinase domain of YukC), Strep-tagged (pRSF/yukCΔ217.strep) (Bacillus subtilis 168); test: as above
# [3] = target: T3, YueB, Strep-tagged (pRSF/yueB.strep) (Bacillus subtilis 168); test: copurification by two successive affinity columns; coexpression in E. coli C43(DE3); membranes solubilized with 0.5% LDAO; StrepTrap (wash with 0.004% LMNG), then HisTrap; Coomassie SDS-PAGE and immunoblots
# [4] = target: T4, YukC413 (YukC lacking the last 38 residues), Strep-tagged (pRSF/yukC413.strep) (Bacillus subtilis 168); test: copurification by two successive affinity columns; coexpression in E. coli BL21(DE3); membrane fraction solubilized with 1% Triton X-100; StrepTrap, then HisTrap; Coomassie SDS-PAGE, identities confirmed by LC-MS/MS
# [5] = target: T5, YueC, bacterial two-hybrid fusion (Bacillus subtilis 168); test: two-hybrid; bacterial two-hybrid (BACTH) in E. coli BTH101; T25 (pKT25/pKNT25) and T18 (pUT18/pUT18C) fusions; spots on LB with X-Gal and IPTG, 25°C, imaged after 48 h
# [6] = target: T6, YukB, bacterial two-hybrid fusion (Bacillus subtilis 168); test: as above
# [7] = target: T7, YukD, bacterial two-hybrid fusion (Bacillus subtilis 168); test: as above
binder,measurement,setting,value
"YukBFHA, His6-tagged (pCDF/yukBΔ256B.his) (domain or fragment, UniProt C0SPA7 1-256) MSLLWVFYQNNVQKLNLSNLPSSHPVTIGPDVKDSVTISTIPFNSGVISLKRKESGGQYEVFLGNDCLGTIETDISFTLQTDQQDIRLILTGSEPEKSVYFTGNRDEIVCSSEKTNADIYLNPQDFAFAEQSTFSLLRAGGSWSVRPESGTIFLNGEKINANTPLKPGDEIFWNFTQMRVTEQDLLEIVHYAQFETALTETVKPSTEMQKKYPQYRRTPRMVYDLPDDRVSFSFPSQESDQTNRGLWLVILPPLVM",binding,[1],binds
same,binding,[2],binds
"YukC full length, His6-tagged (pET15b/yukCFL.his) (protein, UniProt P71070 1-451) MSGEQKSYLENQLEAVAEKTDAGYTFTFQREKIKLLDGLEANVIKDINPFFHKEIDVTDDEVIITIQPPSSYKAFRFMKAKDKKSKWQFAYQLVQAVQQHNLSRLNLIVAPENIVFDKGLTPYFLHYGVKESIPPYERDEERVWQELKAAAALAVDGAFAFEDYLKFNETLTFSAEAKAILDAESYDDLLELIQTHIDELEAKAKTYIHIPRKKWNIQRYIGLGLIVLLVPALIYSMYALFFAQPKHQAIVDSNRAFLNKQYSEVISTLSKYDAESLPESVQYQLATSYVEVENLGSAKTKNIENNLVTLQSDPQHFLYWIDYGRGEYKEAISIGRKLEYNDYIYFALAKYKQQLLSEDTNDEDIQKELDSVNSELEKAQKERQENKQSNSETSLVDTSEEQTQTDEEKQAEEKAAEEKAAAEEKAKKEEQKEKEDEKKETEKKDEKKDDK",binding,[3],binds
"YukE, His6-tagged (pET15b/yukE.his) (protein, UniProt C0SP85 1-97) MAGLIRVTPEELRAMAKQYGVESQEVLNQVDRLNRMISDLKSMWEGASSEAFADQYEQLKPSFIKMSDLLQDVNQQLDQTANTLESTDQDIANQIRG",binding,[4],binds
"YukD, bacterial two-hybrid fusion (protein, UniProt P71071 1-79) MYIDITIDLKHYNGSVFDLRLSDYHPVKKVIDIAWQAQSVSMPPREGHWIRVVNKDKVFSGECKLSDCGITNGDRLEIL",binding,[5],binds
same,binding,[6],no binding
same,binding,[7],no binding

# From PMC9600267, “The Antibacterial Type VII Secretion System of Bacillus subtilis: Structure and Interactions of the Pseudokinase YukC/EssB” (mBio, 2022)
